Test results from PubChem BioAssay AID1347165 (National Center for Advancing Translational Sciences (NCATS), 2019).
Out of some 220,000 compounds screened, about 5,700 (2.6%) were called active. The shares of active, inactive and inconclusive entries below differ from those in the screen. The call rests on the fitted dose curve; in most records, active means well fitted inhibition curve with a large enough effect; inconclusive means small, poorly fitted or top-dose-only effect; inactive means no such curve, though single readings can be large or run the other way. Potencies beside an inconclusive call are fits to weak or partial responses and may not hold up.

Target: Lysine-specific demethylase 5B (Homo sapiens) (UniProt Q9UGL1)
Sequence of UniProt Q9UGL1 (Q9UGL1 whole entry, looked up): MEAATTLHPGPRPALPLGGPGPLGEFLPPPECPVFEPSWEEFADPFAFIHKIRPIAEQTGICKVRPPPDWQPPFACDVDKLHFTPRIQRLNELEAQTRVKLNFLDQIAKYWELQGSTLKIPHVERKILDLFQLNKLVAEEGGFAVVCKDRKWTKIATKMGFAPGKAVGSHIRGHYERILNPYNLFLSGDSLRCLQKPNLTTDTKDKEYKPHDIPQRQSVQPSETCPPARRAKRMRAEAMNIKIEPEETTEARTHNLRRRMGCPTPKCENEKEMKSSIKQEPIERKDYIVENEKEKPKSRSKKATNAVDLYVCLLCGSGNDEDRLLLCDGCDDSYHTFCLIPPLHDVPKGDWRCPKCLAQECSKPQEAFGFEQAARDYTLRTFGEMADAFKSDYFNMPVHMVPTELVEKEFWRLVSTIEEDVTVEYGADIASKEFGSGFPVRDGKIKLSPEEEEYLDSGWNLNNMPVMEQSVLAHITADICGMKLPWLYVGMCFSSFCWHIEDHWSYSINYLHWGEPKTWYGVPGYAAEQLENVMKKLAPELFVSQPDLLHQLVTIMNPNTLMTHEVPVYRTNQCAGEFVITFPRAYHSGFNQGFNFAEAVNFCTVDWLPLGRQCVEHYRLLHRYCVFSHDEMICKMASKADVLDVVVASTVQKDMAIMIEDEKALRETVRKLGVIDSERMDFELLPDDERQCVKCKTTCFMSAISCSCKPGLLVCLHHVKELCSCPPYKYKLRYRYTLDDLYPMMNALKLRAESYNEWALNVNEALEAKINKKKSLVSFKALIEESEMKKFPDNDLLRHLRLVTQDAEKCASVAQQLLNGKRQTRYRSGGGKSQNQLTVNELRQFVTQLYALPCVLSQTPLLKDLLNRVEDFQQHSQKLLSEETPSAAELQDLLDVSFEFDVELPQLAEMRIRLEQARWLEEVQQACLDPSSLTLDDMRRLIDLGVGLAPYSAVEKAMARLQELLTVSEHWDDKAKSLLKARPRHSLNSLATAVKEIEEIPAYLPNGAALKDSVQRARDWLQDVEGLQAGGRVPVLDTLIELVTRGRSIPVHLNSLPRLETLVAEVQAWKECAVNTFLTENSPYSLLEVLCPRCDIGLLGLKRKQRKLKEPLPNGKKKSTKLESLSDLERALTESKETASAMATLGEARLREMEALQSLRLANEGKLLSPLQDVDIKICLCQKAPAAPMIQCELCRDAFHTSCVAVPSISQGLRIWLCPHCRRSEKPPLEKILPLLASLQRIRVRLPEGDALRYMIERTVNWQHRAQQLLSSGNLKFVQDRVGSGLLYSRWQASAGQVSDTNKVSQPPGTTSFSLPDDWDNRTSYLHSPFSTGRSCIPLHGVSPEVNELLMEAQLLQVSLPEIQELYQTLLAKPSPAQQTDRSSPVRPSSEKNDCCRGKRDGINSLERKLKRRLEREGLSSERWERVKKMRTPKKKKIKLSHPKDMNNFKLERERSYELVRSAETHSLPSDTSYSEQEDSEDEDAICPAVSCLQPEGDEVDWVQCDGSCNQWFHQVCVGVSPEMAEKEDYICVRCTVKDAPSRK
Test: Primary screen for KDM5B Histone Demethylases FDH-coupled qHTS; further: nearly all actives have a fitted effect of over 70% in size; on activity change, negative = inhibition: 0% is about no effect
Details: FDH-coupled NADH fluorescence (FDH is formaldehyde dehydrogenase); activity change, negative = inhibition: at 57.7 µM (top of the series) unless noted
Summary of the method: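 Here, H3K4me3 peptide (12.5 µM in substrate mix) is demethylated by KDM5BΔAP, 200 nM final, after 10 min compound exposure. Formaldehyde product is coupled through FDH (0.25 U/mL in mix) to NADH fluorescence; 30-min ΔRFU feeds dose-response curves.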
Potency means the concentration at half of the fitted maximal effect; tags describe the fitted curve by direction and shape.

Structure (SMILES)	Potency	activity change, negative = inhibition
COC(=O)c1ccccc1S(=O)(=O)N1CCC(C(=O)NCc2ccccn2)CC1	inactive	–
CSc1cccc(NC(=O)Cn2c(Nc3cc(C)cc(C)c3)nc(C)cc2=O)c1	active: 28.2 µM	–
COc1cc(NC(=O)c2cnc(SC)nc2C(F)(F)F)cc(OC)c1	inactive	–
Cc1ccc2nc(C)cc(C(=O)NC3CCN(C(=O)c4ccccc4)CC3)c2c1	inconclusive: 31.6 µM [inhibitor, partial curve, poor fit]	–
Cc1ccccc1C(=O)N1CCC(CCC(=O)N2CCN(c3ccccn3)CC2)CC1	inconclusive: 31.6 µM [inhibitor, single point]	–
COc1ccc(/C=C2\CN(Cc3ccccc3)C/C(=C\c3ccc(OC)c(O)c3)C2=O)cc1O	inconclusive: 11.2 µM [inhibitor, partial curve, poor fit]	–
CCOC(=O)CNC(c1ccccc1)c1cc(Br)ccc1NC(=O)c1ccc(Cl)cc1 (stereo unspecified)	inconclusive: 25.1 µM [inhibitor, partial curve, poor fit]	–
COc1ccc(N2CCN(C(=O)c3ccc4c(c3)C(O)CCCCCN4C)CC2)cc1 (stereo unspecified)	inconclusive: 31.6 µM [inhibitor, partial curve, poor fit]	–
COCCc1noc(-c2ccccc2OC2CNC2)n1	inconclusive: 35.5 µM [inhibitor, single point]	–
O=C1CCN(C(=O)C2CCN(C(=O)CCCc3ccccc3)CC2)CCCCCCN1	inactive	–
CN1CCOc2c(C(=O)NCCN3CCNC3=O)cc(-c3cccc4[nH]ccc34)cc21	active: 31.6 µM	–
NNc1ccc(S(=O)(=O)O)cc1	inactive	–
COc1cc(Cl)c(NC(=O)c2cc(S(=O)(=O)N3CCOCC3)cn2C)c(OC)c1	–	inconclusive: -37% [inhibitor]
CCOC(=O)c1ccc(-c2ccc(/C=C(\C#N)C(=O)Nc3c(C)cccc3Cl)o2)cc1	inconclusive: 25.1 µM [inhibitor, single point]	–
Cc1ccc(NC(=S)NNC=O)cc1	inactive	–
O=C(NC1CC1)c1cc2cc3ccccc3nc2s1	inconclusive: 25.1 µM [inhibitor, partial curve, poor fit]	–
CC(C)OC(=O)/C(C#N)=C/c1c[nH]c2ccccc12	inconclusive: 39.8 µM [inhibitor, single point]	–
C#CCSc1nc2sc3c(c2c(=O)n1-c1cccc(OC)c1)CCN(C(C)=O)C3	inconclusive: 15.8 µM [inhibitor, partial curve, poor fit]	–
CC1CCC(NC(=O)C2CC(=O)Nc3cc(F)ccc32)CC1 (stereo unspecified)	inactive	–
COc1ccc(NC(=O)Cn2c(=O)n(-c3cccc(C)c3)c(=O)c3c2c2cc(C)ccc2n3C)cc1OC	inconclusive: 25.1 µM [inhibitor, partial curve, poor fit]	–
COC(=O)c1[nH]c(C)c(/C(O)=C2\C(=O)C(=O)N(CCN3CCOCC3)C2c2ccc(C)o2)c1C (stereo unspecified)	inconclusive: 31.6 µM [inhibitor, single point]	–

Structure (SMILES)	Potency	activity change, negative = inhibition
O=C(c1cccc2[nH]ccc12)N1CCC([C@@H]2CNC[C@H]2CO)CC1	inconclusive: 31.6 µM [inhibitor, partial curve, poor fit]	–
COc1ccc(-c2n[nH]c3c2C(c2ccc(Cl)cc2Cl)NC3=O)cc1 (stereo unspecified)	inconclusive: 10 µM [inhibitor, partial curve, poor fit]	–
CN(C)c1nc2c(c(=O)[nH]1)CCN(Cc1ccc(F)cc1F)CC2	inactive	–
CCN(CCCNC(=O)c1ccc(Sc2ccc(C)cc2)c(NC(C)=O)c1)c1cccc(C)c1	inconclusive: 25.1 µM [inhibitor, partial curve, poor fit]	–
CC(C)(Oc1nn(CC2CCOCC2)c2ccccc12)C(=O)NCC1CCOCC1	inconclusive: 39.8 µM [inhibitor, partial curve]	–
CSc1ccc(-c2nc(CN3CCN(C(C)=O)CC3)c(C)o2)cc1	active: 20 µM	–
COc1ccc2[nH]c3c(c2c1)CCNC31CCN(C(=O)C2CC2)CC1	inconclusive: 25.1 µM [inhibitor, single point]	–
COc1ccc(-n2c(=O)c3c(c4cc(OC)ccc4n3C)n(CC(=O)NCC3CCCO3)c2=O)cc1 (stereo unspecified)	inconclusive: 14.1 µM [inhibitor, partial curve, poor fit]	–
Cc1cccc(N2N=C(C(=O)Nc3ccc(S(=O)(=O)N4CCCCCC4)cc3)CCC2=O)c1	inconclusive: 31.6 µM [inhibitor, single point]	–
Cc1ccc(CNC(=O)c2cc(S(=O)(=O)N3CCCC(C)C3)cn2C)cc1 (stereo unspecified)	inconclusive: 0.631 µM [inhibitor, partial curve, poor fit]	–
Cc1sc(C2C(C#N)=C(N)N(c3cccc(Cl)c3)C3=C2C(=O)CCC3)cc1CN1CCOCC1 (stereo unspecified)	inconclusive: 2 µM [inhibitor, partial curve, poor fit]	–
COc1cc(C#N)ccc1OC(C)C(=O)c1ccccc1 (stereo unspecified)	inactive	–
COC(=O)[C@@H]1Cc2ncn(Cc3ccccc3)c2CN1C(=O)COc1ccccc1	inconclusive: 39.8 µM [inhibitor, partial curve]	–
Cc1cc2c(n1-c1ccc(C(=O)NCC(C)c3ccccc3)cc1)CCCC2 (stereo unspecified)	inconclusive: 15.8 µM [inhibitor, partial curve, poor fit]	–
CCOc1ccc(CNC(=O)c2ccc3c(c2)sc2nc(-c4ccc(OC)cc4)cn23)cc1	inconclusive: 3.16 µM [inhibitor, full curve, poor fit]	–
COc1ccc(C2Cn3nnc(-c4noc(-c5cccc(F)c5)n4)c3CO2)cc1 (stereo unspecified)	inactive	–
Cc1ccc(C(=O)NC2CCN(c3cc(-c4cccs4)[nH]n3)C2)c(C)c1 (stereo unspecified)	inconclusive: 10 µM [inhibitor, partial curve, poor fit]	–
Cc1ccccc1Nc1c(-c2cccc(O)c2)nc2ccc(Br)cn12	inconclusive: 15.8 µM [inhibitor, partial curve, poor fit]	–
CC(C)CCNC(=O)c1ccc(Cn2c(=O)c3cccn3c3cccnc32)cc1	inconclusive: 17.8 µM [inhibitor, partial curve, poor fit]	–
O=S(=O)(NCc1ccc(F)cc1)c1ccc2[nH]c3c(c2c1)CCCCC3	inconclusive: 15.8 µM [inhibitor, partial curve, poor fit]	–
O=C(CCC[C@@H]1[C@H]2CCCN3CCC[C@@H](CN1C(=O)Cc1ccc(F)cc1)[C@@H]23)N1CCOCC1	inconclusive: 28.2 µM [inhibitor, single point]	–

Structure (SMILES)	Potency	activity change, negative = inhibition
COc1ccc2c(=O)n(CC(=O)N3CCCOCC3)ccc2c1OC	inconclusive: 25.1 µM [inhibitor, single point]	–
COCCN(Cc1cc2cc(C)ccc2[nH]c1=O)C(=O)c1ccc(OC)c(OC)c1	inconclusive: 39.8 µM [inhibitor, single point]	–
Cc1cccc(CS(=O)(=O)CC2Nc3ccc(C(=O)NCc4ccccc4)cc3NC2=O)c1 (stereo unspecified)	inconclusive: 5.01 µM [inhibitor, partial curve, poor fit]	–
Cc1cc(=O)oc2c3c(ccc12)OCN(Cc1ccccc1Cl)C3	inconclusive: 17.8 µM [inhibitor, partial curve, poor fit]	–
O=C(O)C(=O)N1CCOCC1	inconclusive: 28.2 µM [inhibitor, partial curve, poor fit]	–
O=C(CCc1ccccc1)N1CC=C(c2c[nH]c3ccccc23)CC1	inconclusive: 28.2 µM [inhibitor, single point]	–
CC(=O)NCCC1CCN(c2nc3nonc3nc2N(C)Cc2ccccc2)CC1	inconclusive: 25.1 µM [inhibitor, single point]	–
C[S+](=O)([O-])N1CCCN(c2nc3ncccc3o2)CC1	inconclusive: 28.2 µM [inhibitor, partial curve, poor fit]	–
CC(C)Cc1cc(CNc2nccc(-c3cc(C(=O)O)ccn3)n2)no1	active: 31.6 µM	–
CCOC(=O)c1ccc(N2C(=O)c3n[nH]c(C)c3C2c2ccc(O)c(OC)c2)cc1 (stereo unspecified)	inconclusive: 15.8 µM [inhibitor, partial curve, poor fit]	–
COc1ccc(N2CCN(C(=O)Cn3cnc4sc(C)c(S(=O)(=O)N5CCC(C)CC5)c4c3=O)CC2)cc1	inconclusive: 39.8 µM [inhibitor, single point]	–
COC(=O)CN1C(=O)[C@@H]2C[C@@H](O)CN2C2(CNC2)C1=O	inconclusive: 28.2 µM [inhibitor, partial curve, poor fit]	–
N#Cc1ccc(CN2CCCCCCNC(=O)CC2c2ccccc2)cc1 (stereo unspecified)	inconclusive: 39.8 µM [inhibitor, single point]	–
CN1[C@@H](CCC(=O)NCc2cccnc2)CNC(=O)[C@@H]2[C@H]1CCN2Cc1ccc(O)cc1	inconclusive: 8.91 µM [inhibitor, partial curve, poor fit]	–
CCCc1cc(=O)oc2cc(OCC(=O)NC3CCCC3)ccc12	inactive	–
CC(C)(C)c1ccc(SCC(=O)NC(C)(C#N)C2CC2)cc1 (stereo unspecified)	inactive	–
O=C(c1ccccc1C1CCNC1)N1CCC(Nc2ncccn2)CC1 (stereo unspecified)	inconclusive: 25.1 µM [inhibitor, single point]	–
Cc1cc(C)c([S+](=O)([O-])c2nnn3c2nc(NCc2ccncc2)c2ccccc23)c(C)c1	inconclusive: 63.1 µM [inhibitor, partial curve, poor fit]	–
COc1ccc(-c2cc(N3CCC(NC(=O)c4ccccc4Cl)C3)n[nH]2)cc1 (stereo unspecified)	inconclusive: 8.91 µM [inhibitor, partial curve, poor fit]	–
